# Results taken from article PMC7819943, “Rice protein-binding microarrays: a tool to detect cis-acting elements near promoter regions in rice”.
# The list shows a part of the results.
# Biological target: T1, OsWOX13 (Oryza sativa, UniProt Q5QMM3 1-267)
# T1 sequence: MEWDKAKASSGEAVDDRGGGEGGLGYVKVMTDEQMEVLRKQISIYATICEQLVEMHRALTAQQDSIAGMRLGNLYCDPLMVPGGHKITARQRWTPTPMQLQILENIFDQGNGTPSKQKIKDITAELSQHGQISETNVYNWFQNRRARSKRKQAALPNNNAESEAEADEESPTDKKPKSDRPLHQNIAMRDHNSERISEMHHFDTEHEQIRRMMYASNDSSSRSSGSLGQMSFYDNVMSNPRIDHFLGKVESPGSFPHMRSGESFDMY
# Test: protein-binding microarray (RPBM); PBS, 2% BSA, 51.3 ng/ul salmon testes DNA, 50 uM zinc acetate, 200 nM TF, 25 C, 1 h; high values mean tight binding
# Settings: protein: recombinant; tags: N-terminal polyhistidine and DsRed monomer fusion (pET32a); label: CyDye5-dUTP incorporated in the synthesized complementary strand; 3' TTTTT single-stranded linker to array surface; dsDNA, one strand shown
# Summary of the method: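 Binding signal is defined as the fluorescence intensity of each feature in arbitrary units, read on an Axon 4000B scanner. Transcription factors with N-terminal polyhistidine and DsRed fusions came from E. coli BL21-CodonPlus and were purified on Ni–NTA. They were incubated at 200 nM for 1 h at 25 °C on a custom Agilent array that had been made double-stranded with Cy5-dUTP, with 50 µM zinc acetate present, and the array was washed.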
row,Sequence,binding signal
1,GTCTTGATCCATCCATCACCCACAATAATCCTAATCACAACGGAGTCACCTAGTGCAG,3490 fluorescence intensity (a.u.)
2,CTAGTGAGGGGCGGGCGGGCGGGCAAGGGGAGCGGATGGGCGGAGTCACCTAGTGCAG,7420 fluorescence intensity (a.u.)
3,AGCCTAGATTATCTCCAGTCTCCTCGGCCAATTCCCGACTCGGAGTCACCTAGTGCAG,7180 fluorescence intensity (a.u.)
4,AACTTATTCCTTAATTAGTCACATAGCTCCGCTGGCCCATCGGAGTCACCTAGTGCAG,3690 fluorescence intensity (a.u.)
5,TCTCACATCAAGACCAATCAACTCATTTGGCTGTAGTTCGCGGAGTCACCTAGTGCAG,4880 fluorescence intensity (a.u.)
6,CGGTGGATTGATTCCCAGATAGGCATTGACACCGACACCGCGGAGTCACCTAGTGCAG,21000 fluorescence intensity (a.u.)
7,TTGCTGATTAATTTCTTTCCTAAAGCATACGGCATAATTCCGGAGTCACCTAGTGCAG,18500 fluorescence intensity (a.u.)
8,GTGATAACTATGATTTGGGAGAAACGTTGACGATCCGACTCGGAGTCACCTAGTGCAG,17600 fluorescence intensity (a.u.)
9,AATAACTAATTGCACATATTGCAACTAATTTACGAGATGACGGAGTCACCTAGTGCAG,27900 fluorescence intensity (a.u.)
10,TTTCCTAATTTCCCAGCTGACAGAAGGGTGTTGCTTGCAACGGAGTCACCTAGTGCAG,8520 fluorescence intensity (a.u.)
11,CGGGATTGTTGTTCTTAAATGTAAATCATCATCGTGAATTCGGAGTCACCTAGTGCAG,9260 fluorescence intensity (a.u.)
12,TATCTACTAATTTAACTTATAAATGGGTTTATGGGTTGACCGGAGTCACCTAGTGCAG,11200 fluorescence intensity (a.u.)
13,ATTAAACGGTTGAGATGATTGTTAATATAAATTTAGTAAGCGGAGTCACCTAGTGCAG,14700 fluorescence intensity (a.u.)
14,ATTCAATCATGTTAGCCTCGGCGCGGGCTTCGTTGGAGAGCGGAGTCACCTAGTGCAG,21100 fluorescence intensity (a.u.)
15,TTTCCAAATTAGCATGGTGCGATTGAGAAATCAAAATGATCGGAGTCACCTAGTGCAG,10100 fluorescence intensity (a.u.)
16,ATAGATAGATGGCTCGTCTCCTCAATCCAATCTTGCCGCTCGGAGTCACCTAGTGCAG,7490 fluorescence intensity (a.u.)
17,GTTGCTCATGACTGAACTTAATTATAGTCTCACGAAGGAACGGAGTCACCTAGTGCAG,11600 fluorescence intensity (a.u.)
18,AAGATTGATCATAATAAGGATCTCCGCAAGGAAGTCTTCACGGAGTCACCTAGTGCAG,28100 fluorescence intensity (a.u.)
19,TATTTTGATTAAAATATACCGAATTATGACCAAATTTTCACGGAGTCACCTAGTGCAG,20100 fluorescence intensity (a.u.)
20,ACAAATTAACAAGTGCATATTCGCATTGCAGCATGATCTACGGAGTCACCTAGTGCAG,13900 fluorescence intensity (a.u.)
21,ATGTAAATTGAGTACAAATCGATTAGTGAACGTATTTATACGGAGTCACCTAGTGCAG,9870 fluorescence intensity (a.u.)

row,Sequence,binding signal
1,TGTAGTTGGATTGACAAATTTTAACCATGAATCAAATTAACGGAGTCACCTAGTGCAG,20100 fluorescence intensity (a.u.)
2,CCATTAATTAATTAACCTGCAGCCTCAATTATTTGGTCTCCGGAGTCACCTAGTGCAG,57600 fluorescence intensity (a.u.)
3,CACACCATAATTGAAAGTTTGAATAAATTAAAACGATGGGCGGAGTCACCTAGTGCAG,43200 fluorescence intensity (a.u.)
4,GGCCTAATTAAGTTAGATTAACTAGATAAAAGAACATCCACGGAGTCACCTAGTGCAG,20000 fluorescence intensity (a.u.)
5,CTGATTTCCATTAGTTAGGTTATCAAATGTGTTAAGAGCACGGAGTCACCTAGTGCAG,12900 fluorescence intensity (a.u.)
6,CGGACCATACATAATCAGTTAATCACAGAATCTACACAGCCGGAGTCACCTAGTGCAG,6350 fluorescence intensity (a.u.)
7,CCTGACAGATGAGCTCCCCACCATGCCGAGCTACCGCCTACGGAGTCACCTAGTGCAG,19800 fluorescence intensity (a.u.)
8,TAAATTATACCAATTAATTAAGTTTTGATCTATCAACACTCGGAGTCACCTAGTGCAG,33400 fluorescence intensity (a.u.)
9,GTGTTTAATTAATTTATACATAGTACTATATGGATATATCCGGAGTCACCTAGTGCAG,25900 fluorescence intensity (a.u.)
10,ATTAACGGGAAAATCTAGGTTGATTGTTCGTGTTAAATTACGGAGTCACCTAGTGCAG,6690 fluorescence intensity (a.u.)
11,AGATTAGATTAAAATCCTATTTCTTGCGATAGAATGTGGCCGGAGTCACCTAGTGCAG,8340 fluorescence intensity (a.u.)
12,GTGAGATTAAATGTCAGGGAACCGAAATTCAGTCATGCAGCGGAGTCACCTAGTGCAG,5380 fluorescence intensity (a.u.)
13,AAGCAAACGGTAGAGAGTTGTGATTGGTTGAGTAGTAGAGCGGAGTCACCTAGTGCAG,3680 fluorescence intensity (a.u.)
14,CAATAATAAGCTGATTTGTTTTCTATCGGAATATATCCATCGGAGTCACCTAGTGCAG,6380 fluorescence intensity (a.u.)
15,GTAAAGAATAATTTGGATGATTACCAAATTAATTTTGGTACGGAGTCACCTAGTGCAG,23100 fluorescence intensity (a.u.)
16,CCTCTTGTTCGTCTTGCTCTGTTTCTTTCTTGTTCTCTCCCGGAGTCACCTAGTGCAG,5560 fluorescence intensity (a.u.)
17,CTATTGATTATGATAATTTGAAGTTATATAGCTTGATTTGCGGAGTCACCTAGTGCAG,57700 fluorescence intensity (a.u.)
18,CTGTAATTAGTTTTCTTATAAATGCCCGAACACTCCATGCCGGAGTCACCTAGTGCAG,31900 fluorescence intensity (a.u.)
19,CAGTATCATTGACTGTCTCAGATAAGGAGACTAGTCACGCCGGAGTCACCTAGTGCAG,3550 fluorescence intensity (a.u.)
20,CTATAAATTTGACTTTGTTCTAGAGATTATAATAGGTTAACGGAGTCACCTAGTGCAG,5590 fluorescence intensity (a.u.)
21,ACTAGTATTAAATTGACTATAAATGATTTGGAGTTAGTAGCGGAGTCACCTAGTGCAG,26300 fluorescence intensity (a.u.)
